# Assay results reported in article PMC4336329 (PLoS ONE, 2015).
# Among all 310,000 compounds or so, about 2,200 (0.71%) showed an effect of 50% or more. The effect is printed as a negative number. Some of the results follow.
# Biological target: human ether-à-go-go-related gene (hERG) potassium channel (human, UniProt Q12809)
# Assay: primary screen, population patch clamp on CHO cells stably expressing hERG
# human ether-à-go-go-related gene (hERG) potassium channel, sequence (Q12809 whole entry, looked up): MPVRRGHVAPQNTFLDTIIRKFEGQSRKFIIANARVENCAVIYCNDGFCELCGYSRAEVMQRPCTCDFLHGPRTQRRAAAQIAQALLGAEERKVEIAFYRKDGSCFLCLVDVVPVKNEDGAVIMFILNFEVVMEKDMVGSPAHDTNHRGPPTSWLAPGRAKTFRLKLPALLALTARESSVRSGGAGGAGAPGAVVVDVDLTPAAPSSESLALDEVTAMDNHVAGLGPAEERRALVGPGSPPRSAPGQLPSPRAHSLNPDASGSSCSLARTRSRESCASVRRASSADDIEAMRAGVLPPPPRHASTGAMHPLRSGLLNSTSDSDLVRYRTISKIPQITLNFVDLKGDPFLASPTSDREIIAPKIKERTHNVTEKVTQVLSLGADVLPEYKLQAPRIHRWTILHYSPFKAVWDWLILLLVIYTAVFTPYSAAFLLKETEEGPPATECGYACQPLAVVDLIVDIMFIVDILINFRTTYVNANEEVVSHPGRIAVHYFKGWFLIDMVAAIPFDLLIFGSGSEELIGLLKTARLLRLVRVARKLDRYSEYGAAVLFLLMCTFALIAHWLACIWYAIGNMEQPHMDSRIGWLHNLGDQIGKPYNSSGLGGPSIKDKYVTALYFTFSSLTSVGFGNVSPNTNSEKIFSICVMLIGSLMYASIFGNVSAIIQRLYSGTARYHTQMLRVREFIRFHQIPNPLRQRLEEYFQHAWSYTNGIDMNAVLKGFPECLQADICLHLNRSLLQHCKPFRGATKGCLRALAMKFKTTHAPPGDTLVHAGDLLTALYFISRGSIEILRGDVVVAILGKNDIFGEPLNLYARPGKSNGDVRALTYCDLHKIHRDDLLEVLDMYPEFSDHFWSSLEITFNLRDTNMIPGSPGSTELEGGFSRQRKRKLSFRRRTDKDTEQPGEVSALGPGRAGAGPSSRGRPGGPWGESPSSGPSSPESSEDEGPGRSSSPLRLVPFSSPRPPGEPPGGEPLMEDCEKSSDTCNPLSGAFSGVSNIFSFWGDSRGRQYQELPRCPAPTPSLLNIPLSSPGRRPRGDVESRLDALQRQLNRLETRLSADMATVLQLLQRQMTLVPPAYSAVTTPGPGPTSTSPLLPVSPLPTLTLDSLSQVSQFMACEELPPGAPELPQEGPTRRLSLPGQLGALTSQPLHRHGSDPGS
row,SMILES,"hERG current change (%, negative = inhibition) at 1uM [%]"
1,O=C(N/N=C/c1cccc(O)c1)c1ccc(COc2cccc3cccnc23)cc1,14.1
2,Cc1ccc(CN(Cc2ccco2)C(=S)NCC(=O)O)cc1,6.44
3,Cc1cc(NC(=O)CSc2nnc3c(C)cc4c(C)ccc(C)c4n23)no1,1.95
4,COc1cc(C2NC(=O)NC(c3ccccc3)=C2C(C)=O)ccc1OCC#N (centres unmarked),4.82
5,CCN(CC)c1ccc(/C=N/NC(=O)c2nnn(-c3nonc3N)c2-c2ccc(C)cc2)cc1,11.7
6,O=C(O)CC1C(=O)NCCN1Cc1ccc(F)c(F)c1 (centres unmarked),12.3
7,Cc1cccc(NC(=O)CSc2ncnc3c2oc2ccccc23)c1,8.31
8,Cc1ccc(Cc2nnc(SCC(=O)Nc3ccccc3)[nH]c2=O)cc1,10.2
9,CCOc1cccc(N2CCN(CCNC(=O)Nc3ccc(C)cc3)CC2)c1C,-8.62
10,CC(C)C(NC(=O)OCc1ccccc1)C(=O)OCC(=O)NC1CC1 (centres unmarked),11.3
11,Cn1c(C(=O)NCCCN2CCN(c3ccccc3F)CC2)cc2c(=O)n(C)c3ccccc3c21,7.26
12,CCNC(=O)CN(c1ccccc1)S(=O)(=O)c1ccc(Cl)cc1,10.7
13,O=C(C1COc2ccccc2O1)N1CCN(c2ccccc2)CC1 (centres unmarked),-2.6
14,C[n+]1cccc(C(=O)[O-])c1,12.8
15,Cc1noc(C)c1CSc1nc2ccccc2c(=O)n1-c1ccc(Cl)cc1,-1.1
16,Cc1ccc(C(=O)Nc2ccccc2)cc1S(=O)(=O)N1CCN(C)CC1,12.2
17,COc1ccc(N(CC(=O)Nc2cc(C)ccc2C)S(=O)(=O)c2c(C)noc2C)cc1,12.4
18,Cn1ccnc1SCC(=O)Nc1nc2ccccc2s1,-11.8
19,CCOC(=O)c1cnc(COc2ccccc2Cl)[nH]c1=O,12.3

row,SMILES,"hERG current change (%, negative = inhibition) at 1uM [%]"
1,O=c1c2ccccc2c(C=Nc2ccc(S(=O)(=O)Nc3ncccn3)cc2)c(O)n1-c1cccc(Cl)c1,14.3
2,CC1(C)CC(=O)C=C(NCc2cccnc2)C1,10.2
3,COc1cc(CO)ccc1OCc1ccc(Cl)nc1,-2.78
4,CC(=O)NS(=O)(=O)c1ccc(Nc2ccc([N+](=O)[O-])c3nonc23)cc1,7.81
5,CC(=O)c1cc(F)c(N2CCN(C(=O)COc3ccc(F)cc3)CC2)cc1C,-38.2
6,CCOC(=O)c1ccc(NC(=O)CNC(=O)C23CC4CC(CC(C4)C2)C3)cc1,13.3
7,C(/C=C/C=C/Nc1ccccc1)=Nc1ccccc1,4.56
8,CCOc1ccc(/C=N/Nc2ccccn2)cc1OC,-3.7
9,CCC(C)(C)n1nnnc1C(c1cc(OC)ccc1OC)N1CCN(Cc2ccccc2)CC1 (centres unmarked),2.89
10,COc1ccc(CC(=O)NC(C)c2nnc(SCC(=O)Nc3cc(C)ccc3OC)n2C)cc1 (centres unmarked),8.52
11,CC12C(=O)N(NC(=O)c3ccncc3)C(=O)C1C1C=CC2C1 (centres unmarked),13.5
12,CCCCN(C(=O)c1cccc(-n2cnnn2)c1)c1c(N)n(CC(C)C)c(=O)[nH]c1=O,2.91
13,CCN(CC)CCNC(=O)/C(=N\O)c1ccccn1,14.8
14,O=C(COc1ccccc1[N+](=O)[O-])N/N=C/c1ccc(O)cc1,5.18
15,CC1(C)CC(=O)C(N=Nc2ccc(S(=O)(=O)N3CCCCCC3)cc2)=C(O)C1,3.82
16,CCOC(=O)c1ccc(NC(=O)Nc2ccc(F)cc2)cc1,11.3
17,CC(=O)NCCNc1nc2c(-c3cccc(C(F)(F)F)c3)nnn2c2ccccc12,15.1
18,O=C(NCc1ccccc1)C(=O)NCC1OCCCN1S(=O)(=O)c1cccs1 (centres unmarked),16.3
19,O=C(Nc1ccccc1Cc1ccccc1)c1ccccc1F,-2.97

row,SMILES,"hERG current change (%, negative = inhibition) at 1uM [%]"
1,O=S(=O)(c1cccc(-c2csc(-c3ccccc3)n2)c1)N1CCOCC1,5.72
2,O=C(NC1(c2ccccc2)CC1)C1CCC(=O)N(Cc2ccc(Cl)cc2)C1 (centres unmarked),7.09
3,Cc1ccccc1CN(C)C(=O)c1ccc2ccccc2n1,12.9
4,Cc1ccc(S(=O)(=O)N2CCN(S(=O)(=O)N3CCCCC3)CC2)c(C)c1,-3.76
5,CCCc1c(O)nc(SCC(=O)O)[nH]c1=O,26.8
6,O=C1CCCCC1S(=O)(=O)c1ccccc1 (centres unmarked),-1.94
7,CCOC(=O)c1nn(-c2ccc(OC)cc2)c(=O)c2c(N)scc12,10.1
8,Cc1ccc2nc(=O)c(NNc3ccccc3)cnc2c1,21.2
9,Cc1ccc(Nc2[nH]c(=O)c3ccccc3c2C(=O)c2ccccc2)cc1,12.1
10,O=S(=O)(c1ccc(Cl)c(C(F)(F)F)c1)N1CCN(c2ccccn2)CC1,11.9
11,CCN(CC)S(=O)(=O)c1ccc(NC(=O)c2ccc(NS(C)(=O)=O)cc2)cc1,11.8
12,CCOC(=O)N1CCN(C(=O)CSCc2ccccc2)CC1,8.59
13,Cc1cc(NC(=O)CSCC(=O)Nc2cc(Cl)ccc2N2CCN(C)CC2)no1,9.87
14,N#C/C(=C\c1ccc(N2CCCCC2)c([N+](=O)[O-])c1)c1nn(-c2ccccc2)c(N)c1C#N,14.5
15,COc1ccc(/C=C/C(=O)NCCCN2CCCCCC2)cc1,-12.6
16,CCCC(=O)Nc1c2c(nn1-c1ccc(C)cc1)CS(=O)(=O)C2,14.4
17,CSc1cccc(NC(=O)COC(=O)C2CCN(S(=O)(=O)c3ccccc3)CC2)c1,6.91
18,COc1ccc(C(=O)Nc2nc3cc4c(cc3s2)OCO4)c(OC)c1,9.56
